# Experimental data as given in the supplement of paper PMC4604168 (melanoma cell lines).
# Some of the results follow. Many values rest on one well or one pass, so single values are uncertain.
# Test system: A375
# Test: cell count relative to DMSO control; melanoma cells; higher = more viable cells
# Conditions: library dose: low library concentration; 72 h; first compound 0.4 µM
# 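Note: cell number obtained by counting DAPI-stained nuclei in high-throughput microscope images with image analysis software, screen run in 1,536-well plates.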
row,SMILES,cell count [%]
1,Cn1sc(=O)n(Cc2ccccc2)c1=O + C=C(c1ccc(C(=O)O)cc1)c1cc2c(cc1C)C(C)(C)CCC2(C)C [Bexarotene] (partner dose 2 µM),102
2,C[C@@H](N)c1ccc(C(=O)Nc2ccnc3[nH]ccc23)cc1 + CN(c1ncccc1CNc1nc(Nc2ccc3c(c2)CC(=O)N3)ncc1C(F)(F)F)S(C)(=O)=O [PF562271] (partner dose 0.08 µM),70.2
3,Cn1sc(=O)n(Cc2ccccc2)c1=O + O=C(O)[C@@H]1[O][Sb](=[O])([O][Sb]2(=[O])[O][C@H]([C@H](O)CO)[C@H](O)[C@H](C(=O)O)[O]2)[O][C@H]([C@H](O)CO)[C@@H]1O [stibogluconate] (partner dose 2 µM),92.7
4,CCCCCCCCCCCCCCCCCCOP(=O)([O-])OC1CC[N+](C)(C)CC1 [Perifosine] + Cn1c(=O)n(-c2ccc(C(C)(C)C#N)cc2)c2c3cc(-c4cnc5ccccc5c4)ccc3ncc21 [NVP-BEZ235] (partner dose 0.004 µM),77.2
5,Cn1sc(=O)n(Cc2ccccc2)c1=O + Nc1ccn([C@@H]2O[C@H](CO)[C@@H](O)C2(F)F)c(=O)n1 [gemcitabine] (partner dose 0.0004 µM),89

# Test system: C32
# Test: as above
# Conditions: library dose: low library concentration; 72 h; first compound 0.4 µM
row,SMILES,cell count [%]
1,CCCCCCCCCCCCCCCCCCOP(=O)([O-])OC1CC[N+](C)(C)CC1 [Perifosine] + Cn1cncc1[C@@](N)(c1ccc(Cl)cc1)c1ccc2c(c1)c(-c1cccc(Cl)c1)cc(=O)n2C [tipifarnib] (partner dose 0.01 µM),91.9
2,Cn1sc(=O)n(Cc2ccccc2)c1=O + c1cc(-c2cnn3cc(-c4ccc(OCCN5CCCCC5)cc4)cnc23)ccn1 [Dorsomorphin] (partner dose 0.4 µM),103
3,C[C@@H](N)c1ccc(C(=O)Nc2ccnc3[nH]ccc23)cc1 + COC(=O)c1sccc1S(=O)(=O)Nc1ccc(Nc2ccccc2)cc1OC [GSK0660] (partner dose 1 µM),90.7
4,Cn1sc(=O)n(Cc2ccccc2)c1=O + Oc1cc(-c2nc(-c3ccccc3)[nH]c2-c2ccncc2)ccc1Cl [L779450] (partner dose 0.2 µM),79
5,C[C@@H](N)c1ccc(C(=O)Nc2ccnc3[nH]ccc23)cc1 + C[C@@H](Oc1cc(-c2cnn(C3CCNCC3)c2)cnc1N)c1c(Cl)ccc(F)c1Cl [Crizotinib] (partner dose 0.2 µM),84.5
6,Cn1sc(=O)n(Cc2ccccc2)c1=O + NCC(=O)Nc1ccc(-n2nc(C(F)(F)F)cc2-c2ccc3c(ccc4ccccc43)c2)cc1 [OSU03012] (partner dose 1 µM),96.5
7,CCCCCCCCCCCCCCCCCCOP(=O)([O-])OC1CC[N+](C)(C)CC1 [Perifosine] + CC(C)CCN1c2nc(Nc3cc(F)c(O)c(F)c3)ncc2N(C)C(=O)C1C [BID1870] (partner dose 0.2 µM),105
8,Cn1sc(=O)n(Cc2ccccc2)c1=O + Oc1nc(-c2ccc(C(F)(F)F)cc2)nc2c1CSCC2 [XAV939] (partner dose 2 µM),83.5
9,C[C@@H](N)c1ccc(C(=O)Nc2ccnc3[nH]ccc23)cc1 + CC(C)CCN1c2nc(Nc3cc(F)c(O)c(F)c3)ncc2N(C)C(=O)C1C [BID1870] (partner dose 0.2 µM),86.5
10,CCCCCCCCCCCCCCCCCCOP(=O)([O-])OC1CC[N+](C)(C)CC1 [Perifosine] + Oc1cc(-c2nc(-c3ccccc3)[nH]c2-c2ccncc2)ccc1Cl [L779450] (partner dose 0.2 µM),83.9
11,C[C@@H](N)c1ccc(C(=O)Nc2ccnc3[nH]ccc23)cc1 + COc1ccc(COc2ccc(Cc3cnc(N)nc3N)cc2OC)cc1 [GW2580] (partner dose 1 µM),76.6
12,CCCCCCCCCCCCCCCCCCOP(=O)([O-])OC1CC[N+](C)(C)CC1 [Perifosine] + Cn1cc(/C=C2\C(=O)Nc3cccnc32)c2ccccc21 [GW441756] (partner dose 0.4 µM),97.9
13,Cn1sc(=O)n(Cc2ccccc2)c1=O + COc1ccc(-c2ccc3c(N4CCOCC4)nc(N4C[C@@H](C)O[C@@H](C)C4)nc3n2)cc1CO [KU0063794] (partner dose 0.02 µM),90.8
14,C[C@@H](N)c1ccc(C(=O)Nc2ccnc3[nH]ccc23)cc1 + CCN(CC)CCNC(=O)c1c(C)[nH]c(/C=C2\C(=O)Nc3ccc(F)cc32)c1C [sunitinib] (partner dose 0.4 µM),95.4
15,Cn1sc(=O)n(Cc2ccccc2)c1=O + COc1ccc(COc2ccc(Cc3cnc(N)nc3N)cc2OC)cc1 [GW2580] (partner dose 1 µM),81.2
16,C[C@@H](N)c1ccc(C(=O)Nc2ccnc3[nH]ccc23)cc1 + Cn1nnc2c(C(N)=O)ncn2c1=O [temozolomide] (partner dose 2 µM),88
17,Cn1sc(=O)n(Cc2ccccc2)c1=O + C=CCNC1=C2C[C@@H](C)C[C@H](OC)[C@H](O)[C@@H](C)/C=C(\C)[C@H](OC(N)=O)[C@@H](OC)/C=C\C=C(/C)C(=O)NC(=CC1=O)C2=O [Tanespimycin] (partner dose 0.002 µM),89.5

row,SMILES,cell count [%]
1,CCCCCCCCCCCCCCCCCCOP(=O)([O-])OC1CC[N+](C)(C)CC1 [Perifosine] + c1cc(-c2cnn3cc(-c4ccc(OCCN5CCCCC5)cc4)cnc23)ccn1 [Dorsomorphin] (partner dose 0.4 µM),79
2,CCCCCCCCCCCCCCCCCCOP(=O)([O-])OC1CC[N+](C)(C)CC1 [Perifosine] + CO[C@H]1C[C@@H]2CC[C@@H](C)[C@@](O)(O2)C(=O)C(=O)N2CCCC[C@H]2C(=O)O[C@H]([C@H](C)C[C@@H]2CC[C@@H](OCCO)[C@H](OC)C2)CC(=O)[C@H](C)/C=C(\C)[C@@H](O)[C@@H](OC)C(=O)[C@H](C)C[C@H](C)/C=C/C=C/C=C/1C [everolimus] (partner dose 0.02 µM),83.5
3,Cn1sc(=O)n(Cc2ccccc2)c1=O + C=C(c1ccc(C(=O)O)cc1)c1cc2c(cc1C)C(C)(C)CCC2(C)C [Bexarotene] (partner dose 2 µM),90.6
4,C[C@@H](N)c1ccc(C(=O)Nc2ccnc3[nH]ccc23)cc1 + COc1cc2ncnc(Nc3ccc(Oc4ccccc4)cc3)c2cc1OC [SrcI1] (partner dose 2 µM),93.6
5,Cn1sc(=O)n(Cc2ccccc2)c1=O + CCc1ccc(CCOc2ccc(CC3SC(=O)NC3=O)cc2)nc1 [pioglitazone] (partner dose 2 µM),80.2
6,C[C@@H](N)c1ccc(C(=O)Nc2ccnc3[nH]ccc23)cc1 + CN(c1ncccc1CNc1nc(Nc2ccc3c(c2)CC(=O)N3)ncc1C(F)(F)F)S(C)(=O)=O [PF562271] (partner dose 0.08 µM),81.4
7,Cn1sc(=O)n(Cc2ccccc2)c1=O + O=S(=O)(c1ccccc1)N(CC(F)(F)F)c1ccc(C(O)(C(F)(F)F)C(F)(F)F)cc1 [T0901317] (partner dose 1.4 µM),93.1
8,CCCCCCCCCCCCCCCCCCOP(=O)([O-])OC1CC[N+](C)(C)CC1 [Perifosine] + CCN(CC)CCCCNc1ncc2cc(-c3cc(OC)cc(OC)c3)c(NC(=O)NC(C)(C)C)nc2n1 [PD173074] (partner dose 0.1 µM),106
9,C[C@@H](N)c1ccc(C(=O)Nc2ccnc3[nH]ccc23)cc1 + O=C1NC(=O)/C(=C/c2ccc(-c3ccc(F)cc3O)o2)S1 [AS252424] (partner dose 1 µM),72.2
10,C[C@@H](N)c1ccc(C(=O)Nc2ccnc3[nH]ccc23)cc1 + COc1ccc2c(c1)CCC1C2CCC2(C)C(NCCCCCCN3C(=O)C=CC3=O)CCC12 [U73122] (partner dose 0.4 µM),88.9
11,CCCCCCCCCCCCCCCCCCOP(=O)([O-])OC1CC[N+](C)(C)CC1 [Perifosine] + COc1ccc(COc2ccc(Cc3cnc(N)nc3N)cc2OC)cc1 [GW2580] (partner dose 1 µM),102
12,CCCCCCCCCCCCCCCCCCOP(=O)([O-])OC1CC[N+](C)(C)CC1 [Perifosine] + COC(=O)c1sccc1S(=O)(=O)Nc1ccc(Nc2ccccc2)cc1OC [GSK0660] (partner dose 1 µM),100
13,C[C@@H](N)c1ccc(C(=O)Nc2ccnc3[nH]ccc23)cc1 + O=C(O)C(=O)Nc1sc2c(c1C(=O)O)CCNC2 [TCS401] (partner dose 1.66667 µM),73.7
14,Cn1sc(=O)n(Cc2ccccc2)c1=O + COc1ccc2c(c1)CCC1C2CCC2(C)C(NCCCCCCN3C(=O)C=CC3=O)CCC12 [U73122] (partner dose 0.4 µM),104
15,Cn1sc(=O)n(Cc2ccccc2)c1=O + O=C(O)[C@@H]1[O][Sb](=[O])([O][Sb]2(=[O])[O][C@H]([C@H](O)CO)[C@H](O)[C@H](C(=O)O)[O]2)[O][C@H]([C@H](O)CO)[C@@H]1O [stibogluconate] (partner dose 2 µM),86.3
16,CCCCCCCCCCCCCCCCCCOP(=O)([O-])OC1CC[N+](C)(C)CC1 [Perifosine] + CCCCCCCCCCCC1=C(O)C(=O)C=C(O)C1=O [Embelin] (partner dose 1.2 µM),105
17,C[C@@H](N)c1ccc(C(=O)Nc2ccnc3[nH]ccc23)cc1 + COc1cc(N2CCC(N3CCN(C)CC3)CC2)ccc1Nc1ncc(Cl)c(Nc2ccccc2S(=O)(=O)C(C)C)n1 [NVP-TAE684] (partner dose 0.08 µM),83.1
